From the antibiotic and cytotoxicity screens of Wong et al. (2023)
The list shows a part of the results.

What follows are molecules tested on HepG2 (assay: cytotoxicity call (relative viability < 0.9)). Conditions: 10 µM.

SMILES	cytotoxicity call
C[C@H](CO)N1C[C@H](C)[C@@H](CN(C)S(=O)(=O)c2ccc(Cl)cc2)OCCCC[C@H](C)Oc2ccc(NC(=O)Nc3cccc4ccccc34)cc2C1=O	inactive
O=C(C[C@@H]1C=C[C@H](NC(=O)c2cnccn2)[C@H](CO)O1)NCc1ccccc1F	inactive
C[C@@H]1CCCCO[C@H](CN(C)C(=O)c2ccncc2)[C@@H](C)CN([C@H](C)CO)C(=O)c2cc(NC(=O)NC3CCCCC3)ccc2O1	inactive
Cc1ccc(S(=O)(=O)Nc2cccc3c2O[C@@H](CN(C)Cc2ccc(Cl)c(Cl)c2)[C@@H](C)CN([C@H](C)CO)C3=O)cc1	inactive
C[C@H](O)[C@H](O)[C@@H](O)[C@@H](O)/C=N/NC(=O)c1ccccn1	inactive
COc1ccc(S(=O)(=O)N(C)C[C@@H]2OCCCC[C@@H](C)Oc3ccc(NC(=O)Nc4cccc5ccccc45)cc3C(=O)N([C@H](C)CO)C[C@@H]2C)cc1	inactive
Cn1cnc(S(=O)(=O)N[C@@H]2C=C[C@@H](CC(=O)Nc3ccccc3)O[C@H]2CO)c1	inactive
C[C@@H]1CN([C@H](C)CO)C(=O)c2cc(-c3cccc(C(=O)N(C)C)c3)cnc2O[C@@H]1CN(C)S(=O)(=O)c1ccc(F)cc1	inactive
COc1ccc(S(=O)(=O)Nc2ccc3c(c2)C(=O)N([C@H](C)CO)C[C@@H](C)[C@@H](CN(C)Cc2ccc4c(c2)OCO4)OCCCC[C@H](C)O3)cc1	inactive
C[C@H]1CN([C@@H](C)CO)C(=O)c2cc(-c3cccc(C#N)c3)cnc2O[C@H]1CN(C)C(=O)c1cnccn1	inactive
CCS(=O)(=O)N1[C@@H](CO)[C@H](c2ccccc2)C12CN(C(=O)CN(C)C)C2	inactive
COc1ccc(NC(=O)N(C)C[C@@H]2OCCCC[C@H](C)Oc3ccc(NC(=O)C4CCCCC4)cc3C(=O)N([C@@H](C)CO)C[C@H]2C)cc1	inactive
O=C(N[C@H]1C=C[C@@H](CC(=O)N2CCOCC2)O[C@@H]1CO)c1ccc2c(c1)OCO2	inactive
C/C=C/c1ccc2c(c1)O[C@@H](CN(C)S(=O)(=O)c1ccc(C)cc1)[C@@H](C)CN([C@H](C)CO)S2(=O)=O	inactive
C[C@H]1CN([C@@H](C)CO)C(=O)c2cccc(NC(=O)Nc3ccccc3)c2O[C@H]1CN(C)Cc1ccc(C(F)(F)F)cc1	inactive
C[C@@H]1CN([C@@H](C)CO)C(=O)c2cccc(NC(=O)c3ccncc3)c2O[C@H]1CN(C)S(=O)(=O)c1ccccc1	inactive
COc1ccc(NC(=O)N(C)C[C@H]2OCCCC[C@H](C)Oc3ccc(NC(=O)c4ccccc4)cc3C(=O)N([C@@H](C)CO)C[C@H]2C)cc1	inactive
COC(=O)CCCCCCC(=O)Nc1ccc(NC(=O)CCCC[P+](c2ccccc2)(c2ccccc2)c2ccccc2)cc1	inactive
